Measurements taken from patent US20200207836A1 (MONASH UNIVERSITY, published 2020).

How the values were obtained:
Experiment in all cases: Receptor-HIT BRET, HEK293FT cells
untagged CCR4 = target: T1, untagged CCR4 (human, UniProt P51679 1-360)
T1 construct: Not BRET-tagged
T1 sequence: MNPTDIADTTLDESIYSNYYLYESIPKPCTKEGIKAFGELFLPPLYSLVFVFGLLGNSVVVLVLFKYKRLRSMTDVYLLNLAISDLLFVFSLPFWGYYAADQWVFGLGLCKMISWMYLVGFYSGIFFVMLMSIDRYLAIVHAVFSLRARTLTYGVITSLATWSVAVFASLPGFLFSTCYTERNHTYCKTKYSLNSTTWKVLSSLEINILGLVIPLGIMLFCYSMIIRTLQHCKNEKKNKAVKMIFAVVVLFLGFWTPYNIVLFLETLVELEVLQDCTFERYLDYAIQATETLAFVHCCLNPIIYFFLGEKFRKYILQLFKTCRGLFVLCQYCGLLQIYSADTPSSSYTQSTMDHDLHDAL

CCR10 (not BRET-tagged) = target: T2, CCR10 (not BRET-tagged) (UniProt P46092 1-362, limits assumed)
T2 construct: whole, on cells
T2 sequence (looked up): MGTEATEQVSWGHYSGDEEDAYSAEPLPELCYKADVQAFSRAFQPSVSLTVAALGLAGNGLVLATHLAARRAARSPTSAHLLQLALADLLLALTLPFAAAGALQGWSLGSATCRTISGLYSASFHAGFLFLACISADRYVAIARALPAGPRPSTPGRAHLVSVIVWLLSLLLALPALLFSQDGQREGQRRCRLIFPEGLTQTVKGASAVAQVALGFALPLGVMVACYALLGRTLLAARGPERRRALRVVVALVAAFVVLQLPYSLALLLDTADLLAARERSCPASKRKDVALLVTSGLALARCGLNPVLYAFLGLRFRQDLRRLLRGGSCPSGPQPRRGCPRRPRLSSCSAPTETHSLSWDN

CXCR3 (not BRET-tagged) = target: T3, CXCR3 (not BRET-tagged) (UniProt P49682 1-368, limits assumed)
T3 construct: whole, on cells
T3 sequence (looked up): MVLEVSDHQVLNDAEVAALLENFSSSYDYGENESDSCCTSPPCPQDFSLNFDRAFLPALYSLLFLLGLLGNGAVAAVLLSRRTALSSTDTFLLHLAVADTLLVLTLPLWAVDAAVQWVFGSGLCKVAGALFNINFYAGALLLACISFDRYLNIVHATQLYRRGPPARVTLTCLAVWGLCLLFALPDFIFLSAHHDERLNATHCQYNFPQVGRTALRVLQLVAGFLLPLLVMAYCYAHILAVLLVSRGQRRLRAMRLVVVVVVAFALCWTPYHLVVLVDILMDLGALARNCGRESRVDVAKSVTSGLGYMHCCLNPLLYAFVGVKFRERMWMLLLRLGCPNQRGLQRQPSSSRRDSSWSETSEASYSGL

- binding result (untagged CCR4): no binding
- binding result (CCR10 (not BRET-tagged)): no binding
- binding result (CXCR3 (not BRET-tagged)): no binding
B1: RAGE/Rluc8 (receptor)
chain: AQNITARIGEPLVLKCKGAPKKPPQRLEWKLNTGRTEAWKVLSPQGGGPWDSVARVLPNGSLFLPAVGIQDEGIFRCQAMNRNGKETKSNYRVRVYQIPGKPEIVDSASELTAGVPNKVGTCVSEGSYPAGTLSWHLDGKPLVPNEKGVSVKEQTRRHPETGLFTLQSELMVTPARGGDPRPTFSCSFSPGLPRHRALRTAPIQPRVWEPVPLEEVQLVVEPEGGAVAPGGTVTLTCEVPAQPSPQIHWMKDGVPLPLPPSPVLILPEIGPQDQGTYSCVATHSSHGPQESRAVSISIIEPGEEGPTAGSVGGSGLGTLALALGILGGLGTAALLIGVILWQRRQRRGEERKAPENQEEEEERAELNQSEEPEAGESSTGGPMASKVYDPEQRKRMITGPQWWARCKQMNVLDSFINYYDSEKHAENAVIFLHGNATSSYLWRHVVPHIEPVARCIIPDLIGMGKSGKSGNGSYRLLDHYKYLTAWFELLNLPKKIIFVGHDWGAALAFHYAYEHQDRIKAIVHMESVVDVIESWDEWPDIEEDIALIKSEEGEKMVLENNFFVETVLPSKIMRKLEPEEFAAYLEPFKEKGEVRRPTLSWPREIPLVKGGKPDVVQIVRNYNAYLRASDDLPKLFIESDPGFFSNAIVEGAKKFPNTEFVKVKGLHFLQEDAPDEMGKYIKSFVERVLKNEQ
notes: also called Rluc8-labelled RAGE; Rluc8-tagged RAGE
